The results in this text go back to the supplement of paper PMC4604168 (melanoma cell lines).

Some of the results follow. Single values are uncertain, as repeats are few or missing.
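Further: cells treated in 1,536-well plates, then fixed and DAPI-stained, with nuclei counted from automated high-throughput microscope images.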

The experiment deals with UACC257. The experiment can be described thus: cell count relative to DMSO control; melanoma cells; higher = more viable cells. The following applies: library dose: standard library concentration; 72 h.
Turning to `N#CC[C@H](C1CCCC1)n1cc(-c2ncnc3[nH]ccc23)cn1` [ruxolitinib] + CC(C)C[C@H](NC(=O)[C@H](Cc1ccccc1)NC(=O)c1cnccn1)B(O)O [Bortezomib] (first compound 5 µM, partner dose 0.005 µM), the cell count came out at 75.6%.

`CC[C@]1(O)C[C@H]2CN(CCc3c([nH]c4ccccc34)[C@@](C(=O)OC)(c3cc4c(cc3OC)N(C=O)[C@H]3[C@@](O)(C(=O)OC)[C@H](OC(C)=O)[C@]5(CC)C=CCN6CC[C@]43[C@@H]65)C2)C1` [vincristine] + COC(=O)c1sccc1S(=O)(=O)Nc1ccc(Nc2ccccc2)cc1OC [GSK0660] (first compound 0.0005 µM, partner dose 5 µM) came in with a cell count of 45.7%.

In turn, `N#CC[C@H](C1CCCC1)n1cc(-c2ncnc3[nH]ccc23)cn1` [ruxolitinib] + CS(=O)(=O)CCNCc1ccc(-c2ccc3ncnc(Nc4ccc(OCc5cccc(F)c5)c(Cl)c4)c3c2)o1 [lapatinib] (first compound 5 µM, partner dose 4 µM) returned a cell count of 70.3%.

For the compound `Cc1cc(Nc2cc(N3CCN(C)CC3)nc(Sc3ccc(NC(=O)C4CC4)cc3)n2)n[nH]1` [Tozasertib] + C[C@]1(c2nc3c(C(N)=O)cccc3[nH]2)CCCN1 [Veliparib] (first compound 0.03 µM, partner dose 7 µM), the cell count was 73.9%.

With `N#CC[C@H](C1CCCC1)n1cc(-c2ncnc3[nH]ccc23)cn1` [ruxolitinib] + Cn1cncc1[C@@](N)(c1ccc(Cl)cc1)c1ccc2c(c1)c(-c1cccc(Cl)c1)cc(=O)n2C [tipifarnib] (first compound 5 µM, partner dose 0.05 µM), the cell count came out at 86.3%.

On to `CC[C@]1(O)C[C@H]2CN(CCc3c([nH]c4ccccc34)[C@@](C(=O)OC)(c3cc4c(cc3OC)N(C=O)[C@H]3[C@@](O)(C(=O)OC)[C@H](OC(C)=O)[C@]5(CC)C=CCN6CC[C@]43[C@@H]65)C2)C1` [vincristine] + Cc1cc(Nc2cc(N3CCN(C)CC3)nc(/C=C/c3ccccc3)n2)n[nH]1 [ENMD2076] (first compound 0.0005 µM, partner dose 0.2 µM), for which the cell count came out at 70.6%.

`Cc1cc(Nc2cc(N3CCN(C)CC3)nc(Sc3ccc(NC(=O)C4CC4)cc3)n2)n[nH]1` [Tozasertib] + CC(C)CCN1c2nc(Nc3cc(F)c(O)c(F)c3)ncc2N(C)C(=O)C1C [BID1870] (first compound 0.03 µM, partner dose 1 µM) returned a cell count of 97%.

Turning to `CC[C@]1(O)C[C@H]2CN(CCc3c([nH]c4ccccc34)[C@@](C(=O)OC)(c3cc4c(cc3OC)N(C=O)[C@H]3[C@@](O)(C(=O)OC)[C@H](OC(C)=O)[C@]5(CC)C=CCN6CC[C@]43[C@@H]65)C2)C1` [vincristine] + CN(NC(=O)CC(=O)NN(C)C(=S)c1ccccc1)C(=S)c1ccccc1 [STA4783] (first compound 0.0005 µM, partner dose 0.03 µM), the cell count is 91%.

Regarding `CC[C@]1(O)C[C@H]2CN(CCc3c([nH]c4ccccc34)[C@@](C(=O)OC)(c3cc4c(cc3OC)N(C=O)[C@H]3[C@@](O)(C(=O)OC)[C@H](OC(C)=O)[C@]5(CC)C=CCN6CC[C@]43[C@@H]65)C2)C1` [vincristine] + CO[C@@H]1[C@H](N(C)C(=O)c2ccccc2)C[C@H]2O[C@]1(C)n1c3ccccc3c3c4c(c5c6ccccc6n2c5c31)C(=O)NC4 [Midostaurin] (first compound 0.0005 µM, partner dose 0.4 µM), the cell count amounted to 69.1%.

`N#CC[C@H](C1CCCC1)n1cc(-c2ncnc3[nH]ccc23)cn1` [ruxolitinib] + CN1CCN(c2ccc3nc(-c4c(N)c5c(F)cccc5[nH]c4=O)[nH]c3c2)CC1 [Dovitinib] (first compound 5 µM, partner dose 0.5 µM) yielded a cell count of 69%.

For the compound `N#CC[C@H](C1CCCC1)n1cc(-c2ncnc3[nH]ccc23)cn1` [ruxolitinib] + CN(C)S(=O)(=O)c1ccc2c(c1)/C(=C/c1cc3c([nH]1)CCCC3)C(=O)N2 [SU6656] (first compound 5 µM, partner dose 2 µM), the cell count turned out to be 68.7%.

In turn, `Cc1cc(Nc2cc(N3CCN(C)CC3)nc(Sc3ccc(NC(=O)C4CC4)cc3)n2)n[nH]1` [Tozasertib] + O=C(Nc1cccc(Cl)c1)Nc1ncc(CCNc2ncnc3ccsc23)s1 [SNS314] (first compound 0.03 µM, partner dose 0.004 µM) yielded a cell count of 52.1%.

As to `CC[C@]1(O)C[C@H]2CN(CCc3c([nH]c4ccccc34)[C@@](C(=O)OC)(c3cc4c(cc3OC)N(C=O)[C@H]3[C@@](O)(C(=O)OC)[C@H](OC(C)=O)[C@]5(CC)C=CCN6CC[C@]43[C@@H]65)C2)C1` [vincristine] + COc1ccc(Cl)c(Nc2nc3ccccc3nc2NS(=O)(=O)c2cccc(NC(=O)C(C)(C)N)c2)c1 [XL147] (first compound 0.0005 µM, partner dose 4 µM), the cell count was 80.4%.

For the compound `CC[C@]1(O)C[C@H]2CN(CCc3c([nH]c4ccccc34)[C@@](C(=O)OC)(c3cc4c(cc3OC)N(C=O)[C@H]3[C@@](O)(C(=O)OC)[C@H](OC(C)=O)[C@]5(CC)C=CCN6CC[C@]43[C@@H]65)C2)C1` [vincristine] + CO[C@H]1C[C@@H]2CC[C@@H](C)[C@@](O)(O2)C(=O)C(=O)N2CCCC[C@H]2C(=O)O[C@H]([C@H](C)C[C@@H]2CC[C@@H](OCCO)[C@H](OC)C2)CC(=O)[C@H](C)/C=C(\C)[C@@H](O)[C@@H](OC)C(=O)[C@H](C)C[C@H](C)/C=C/C=C/C=C/1C [everolimus] (first compound 0.0005 µM, partner dose 0.1 µM), the cell count turned out to be 95.6%.

In turn, `N#CC[C@H](C1CCCC1)n1cc(-c2ncnc3[nH]ccc23)cn1` [ruxolitinib] + c1cc(-c2cnn3cc(-c4ccc(OCCN5CCCCC5)cc4)cnc23)ccn1 [Dorsomorphin] (first compound 5 µM, partner dose 2 µM) yielded a cell count of 69.7%.

The compound `Cc1cc(Nc2cc(N3CCN(C)CC3)nc(Sc3ccc(NC(=O)C4CC4)cc3)n2)n[nH]1` [Tozasertib] + C[C@@H]1CCN(C(=O)CC#N)C[C@@H]1N(C)c1ncnc2[nH]ccc12 [CP690550] (first compound 0.03 µM, partner dose 5 µM) gave a cell count of 96.1%.

Take `N#CC[C@H](C1CCCC1)n1cc(-c2ncnc3[nH]ccc23)cn1` [ruxolitinib] + O=c1[nH]nc(Sc2ncc([N+](=O)[O-])s2)n1-c1ccc2c(c1)OCCO2 [BI78D3] (first compound 5 µM, partner dose 1 µM): the cell count amounted to 79.9%.

The compound `N#CC[C@H](C1CCCC1)n1cc(-c2ncnc3[nH]ccc23)cn1` [ruxolitinib] + OCCn1cc(-c2cnc3nnn(Cc4ccc5ncccc5c4)c3n2)cn1 [PF04217903] (first compound 5 µM, partner dose 5 µM) displayed a cell count of 89.5%.

For the compound `CC[C@]1(O)C[C@H]2CN(CCc3c([nH]c4ccccc34)[C@@](C(=O)OC)(c3cc4c(cc3OC)N(C=O)[C@H]3[C@@](O)(C(=O)OC)[C@H](OC(C)=O)[C@]5(CC)C=CCN6CC[C@]43[C@@H]65)C2)C1` [vincristine] + O=C(CCCCCCC(=O)Nc1ccccc1)NO [vorinostat] (first compound 0.0005 µM, partner dose 0.4 µM), the cell count turned out to be 65.2%.

The compound `N#CC[C@H](C1CCCC1)n1cc(-c2ncnc3[nH]ccc23)cn1` [ruxolitinib] + O=C1NC(=O)/C(=C/c2ccc(-c3ccc(F)cc3O)o2)S1 [AS252424] (first compound 5 µM, partner dose 5 µM) displayed a cell count of 92.9%.

For `CC[C@]1(O)C[C@H]2CN(CCc3c([nH]c4ccccc34)[C@@](C(=O)OC)(c3cc4c(cc3OC)N(C=O)[C@H]3[C@@](O)(C(=O)OC)[C@H](OC(C)=O)[C@]5(CC)C=CCN6CC[C@]43[C@@H]65)C2)C1` [vincristine] + O=C1NC(=O)/C(=C/c2ccc(-c3ccc(F)cc3O)o2)S1 [AS252424] (first compound 0.0005 µM, partner dose 5 µM), the cell count came out at 66.8%.

On to `N#CC[C@H](C1CCCC1)n1cc(-c2ncnc3[nH]ccc23)cn1` [ruxolitinib] + C[C@@H](Oc1cc(-c2cnn(C3CCNCC3)c2)cnc1N)c1c(Cl)ccc(F)c1Cl [Crizotinib] (first compound 5 µM, partner dose 1 µM), for which the cell count was 91.8%.

`Cc1cc(Nc2cc(N3CCN(C)CC3)nc(Sc3ccc(NC(=O)C4CC4)cc3)n2)n[nH]1` [Tozasertib] + NCC(=O)Nc1ccc(-n2nc(C(F)(F)F)cc2-c2ccc3c(ccc4ccccc43)c2)cc1 [OSU03012] (first compound 0.03 µM, partner dose 5 µM) registered a cell count of 78.6%.

`Cc1cc(Nc2cc(N3CCN(C)CC3)nc(Sc3ccc(NC(=O)C4CC4)cc3)n2)n[nH]1` [Tozasertib] + Cc1cc([N+](=O)[O-])ccc1NS(=O)(=O)c1cc(Cl)ccc1Cl [FH535] (first compound 0.03 µM, partner dose 5 µM) showed a cell count of 65.2%.

In turn, `N#CC[C@H](C1CCCC1)n1cc(-c2ncnc3[nH]ccc23)cn1` [ruxolitinib] + CCN(CC)CCCCNc1ncc2cc(-c3cc(OC)cc(OC)c3)c(NC(=O)NC(C)(C)C)nc2n1 [PD173074] (first compound 5 µM, partner dose 0.5 µM) yielded a cell count of 91.9%.

`CC[C@]1(O)C[C@H]2CN(CCc3c([nH]c4ccccc34)[C@@](C(=O)OC)(c3cc4c(cc3OC)N(C=O)[C@H]3[C@@](O)(C(=O)OC)[C@H](OC(C)=O)[C@]5(CC)C=CCN6CC[C@]43[C@@H]65)C2)C1` [vincristine] + NCC(=O)Nc1ccc(-n2nc(C(F)(F)F)cc2-c2ccc3c(ccc4ccccc43)c2)cc1 [OSU03012] (first compound 0.0005 µM, partner dose 5 µM) had a cell count of 69.6%.

For `N#CC[C@H](C1CCCC1)n1cc(-c2ncnc3[nH]ccc23)cn1` [ruxolitinib] + Cc1nc(Nc2ncc(C(=O)Nc3c(C)cccc3Cl)s2)cc(N2CCN(CCO)CC2)n1 [dasatanib] (first compound 5 µM, partner dose 0.02 µM), the cell count came out at 71.6%.

On to `CC[C@]1(O)C[C@H]2CN(CCc3c([nH]c4ccccc34)[C@@](C(=O)OC)(c3cc4c(cc3OC)N(C=O)[C@H]3[C@@](O)(C(=O)OC)[C@H](OC(C)=O)[C@]5(CC)C=CCN6CC[C@]43[C@@H]65)C2)C1` [vincristine] + O=C(O)c1ccc(-c2c[nH]c3ncc(-c4ccccc4)cc23)cc1C1CCCC1 [GSK650394] (first compound 0.0005 µM, partner dose 0.8 µM), for which the cell count came to 69.2%.
